Reference: PubChem BioAssay AID1745853 (National Center for Advancing Translational Sciences (NCATS), 2022)
The other results are listed elsewhere or left out. These are further read-outs of the screen, such as a control signal, another cell line or another target. No call is given for them.

How the values were obtained:
Experiment in all cases: Primary Screen for Target Class Profiling of Small Molecule Inhibitors of Methyltransferases
[1] = biological target: Glycine N-methyltransferase (Homo sapiens) (UniProt Q14749); conditions: purified enzyme, MTase-Glo SAH luminescence; measured here: GNMT inhibition; at 40 µM; stronger effect = lower value
How it was run: (§1)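 Each enzyme was reacted with SAM and its substrate, with compounds tested once at 40 uM; SAH formed was read by MTase-Glo luminescence.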

[2] = biological target: Guanidinoacetate N-methyltransferase (Homo sapiens) (UniProt Q14353); conditions: purified enzyme, MTase-Glo SAH luminescence; measured here: GAMT inhibition; at 40 µM; stronger effect = lower value
How it was run: as §1

[3] = biological target: Histamine N-methyltransferase (Homo sapiens) (UniProt P50135); conditions: purified enzyme, MTase-Glo SAH luminescence; measured here: HNMT inhibition; at 40 µM; stronger effect = lower value
How it was run: as §1

[4] = biological target: Nicotinamide N-methyltransferase (Homo sapiens) (UniProt P40261); conditions: purified enzyme, MTase-Glo SAH luminescence; measured here: NNMT inhibition; at 40 µM; stronger effect = lower value
How it was run: as §1

[5] = biological target: Phenylethanolamine N-methyltransferase (Homo sapiens) (UniProt P11086); conditions: purified enzyme, MTase-Glo SAH luminescence; measured here: PNMT inhibition; at 40 µM; stronger effect = lower value
How it was run: as §1
% is set by controls: 0 for no effect and ±100 for the full control effect.

Row | Compound | activity change, negative = inhibition [1] | activity change, negative = inhibition [2] | activity change, negative = inhibition [3] | activity change, negative = inhibition [4] | activity change, negative = inhibition [5]
1 | CC(C)CNC(=O)c1ccc2c(=O)n(C(C)C)c3nn(CC(=O)Nc4ccc(Cl)cc4)c(=O)n3c2c1 | 3.24% | 0% | 6.88% | 4.28% | 5.68%
2 | Cc1ccc(Cn2c(=O)c3ccccc3n3c(CCC(=O)NCCN4CCCC4)nnc23)cc1 | -9.95% | 0.569% | -47.5% | 2.67% | -6.89%
3 | Cc1ccc(OCCSc2ncccn2)c(Br)c1 |  | 8.76% |  | -34.9% | -1.14%
4 | Cc1ccc2c(c1)c(-n1cccc1)c1n2CC(C)(C(=O)NC2CCC(C)CC2)N(Cc2ccc(Cl)cc2)C1=O (stereo not drawn) | -11.1% | 1.9% | -3.9% | -14.7% | -2.42%
5 | Cc1ccc(CCNC(=O)CCn2ccc3cc(S(=O)(=O)N4CCC(C)CC4)ccc32)cc1 | 2.54% | 3.42% | 1.03% | -8.68% | -2.48%
6 | O=C(NC1CCCCC1)c1ccc2oc(-c3ccnc(Cl)c3)nc2c1 | -10% | 0.144% | -0.181% | -3.25% | 1.72%
7 | CC(C)OCCCn1c(=O)c2ccccc2n2c(CCC(=O)N3CCN(c4ccccn4)CC3)nnc12 | -15.4% | -0.403% | -19.4% | -4.26% | -1.45%
8 | COc1ccc2c(c1)C(C(=O)N(Cc1ccc(N(C)C)cc1)c1ccc(C(C)C)cc1)CCC2 (stereo not drawn) | -1.04% | -16.4% | 1.02% | -32.3% | -6.53%
9 | CCc1ccc(NC(=O)Cn2nc3n(CCCOC(C)C)c(=O)c4ccccc4n3c2=O)cc1 | 6.61% | 0.906% | 7.98% | 5.04% | 6.92%
10 | CCCOc1c(CN2CCCNCC2)cc(Cl)cc1OC | -2.67% | 0.792% | -1.52% | -5.41% | -8.56%
11 | Cc1ccc(S(=O)(=O)NC[C@H]2OC[C@@H](NCc3ccc(S(C)(=O)=O)cc3)[C@@H]2O)cc1 | -0.245% | 3.15% | 2.02% | -3.71% | 13.9%
12 | CN1C(=O)N(C)C2(CCN(CCOc3ccccc3)C2)C1=O (stereo not drawn) | -2.16% | -0.688% | 1.25% | -7.18% | -2.78%
13 | Cc1cccc(N2CCN(C(=O)CCc3nnc4n(CCCOC(C)C)c(=O)c5ccccc5n34)CC2)c1C | -17.4% | 1.76% | -0.016% | -19.3% | -4.91%
14 | COc1ccc2cc3n(c2c1)CC(C)(C(=O)NC1CCCCC1)N(CCN1CCCCC1C)C3=O (stereo not drawn) | 1.43% | -0.925% | 3.13% | -1.59% | -1.76%
15 | COc1ccc(C)cc1NC(=O)N1CCn2cccc2C1Cc1ccccc1 (stereo not drawn) | 10.1% | 0% | 9.81% | 4.81% | 3.87%
16 | CCNC(=O)N1CC[C@H]2CC(=O)N(CCc3cccc(OC)c3OC)CC[C@H]2C1 | -1.24% | 0.424% | 2.09% | 0.526% | -1.75%
17 | CN(C)c1ccc(CN2C(=O)c3nc4ccccc4n3CC2(C)C(=O)NCc2ccccc2)cc1 (stereo not drawn) | 2.28% | 0.926% | 1.98% | 3.64% | 0.75%
